Experiment [1] has as its target FLAG-tagged WT NEIL1 (human) (UniProt Q96FI4). Briefly: proximity ligation; In situ PLA (Duolink) in fixed, permeabilised HEK293 cells stably expressing FLAG-WT NEIL1 or FLAG-N311; mouse FLAG Ab and rabbit Abs for Polβ, LigIIIα or XRCC1; nuclear foci.
For experiment [2], the target named is FLAG-N311 mutant of NEIL1 (human) (UniProt Q96FI4). The description is as above.
The target of experiment [3] is FLAG-tagged WT NEIL1 (human) (UniProt Q96FI4). Kind of experiment: co-IP; HEK293 cells stably expressing FLAG-NEIL1 or FLAG-N311; lysate digested with 500 units/ml benzonase at 37 °C for 30 min; anti-FLAG Ab agarose beads, 3 h at 4 °C; washed with cold Tris-buffered saline; Western analysis.
In experiment [4] the target is FLAG-N311 mutant of NEIL1 (human) (UniProt Q96FI4). The description is as above.
In experiment [5] the target is Recombinant wild-type (WT) NEIL1 (human) (UniProt Q96FI4). Kind of experiment: far-Western, overlay or dot blot; WT NEIL1 and N311 (40 pmol) on nitrocellulose after 12% SDS-PAGE, denatured in situ with 6M guanidine-HCl and renatured; membrane incubated with Polβ, LigIIIα or XRCC1 (10 pmol/mL) in PBS, 0.5% nonfat dried milk, 0.05% Tween 20, 10 mM TMAO, 1 mM DTT for 3 h; immunoblotting; both purified.

By UniProt entry, the sequences of proteins in these tests, tags left out.
UniProt P18887: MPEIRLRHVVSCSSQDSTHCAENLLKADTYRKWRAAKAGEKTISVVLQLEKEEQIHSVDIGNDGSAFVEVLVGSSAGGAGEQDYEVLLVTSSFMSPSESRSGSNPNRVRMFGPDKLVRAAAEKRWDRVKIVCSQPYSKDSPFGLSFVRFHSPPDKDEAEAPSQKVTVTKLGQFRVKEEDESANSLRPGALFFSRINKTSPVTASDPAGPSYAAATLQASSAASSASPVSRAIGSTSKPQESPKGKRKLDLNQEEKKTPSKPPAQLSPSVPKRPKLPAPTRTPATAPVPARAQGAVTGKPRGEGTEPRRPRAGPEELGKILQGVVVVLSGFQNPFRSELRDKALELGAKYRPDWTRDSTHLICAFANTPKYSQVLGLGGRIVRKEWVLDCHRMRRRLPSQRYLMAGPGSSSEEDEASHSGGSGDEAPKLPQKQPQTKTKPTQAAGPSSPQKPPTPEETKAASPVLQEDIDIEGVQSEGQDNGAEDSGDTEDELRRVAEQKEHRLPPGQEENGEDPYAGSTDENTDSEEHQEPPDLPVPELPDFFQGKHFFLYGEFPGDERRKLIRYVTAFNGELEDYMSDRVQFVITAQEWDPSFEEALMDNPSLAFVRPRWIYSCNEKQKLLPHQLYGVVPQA

Experimental findings from publication PMC3733129 are described below.

No constants are given. Whether binding was seen depends on the method and setting. For some assays here: Binding seen in cells or lysates may run through a third protein. Some entries that bind do so weakly or less than the wild type.

Regarding “XRCC1, endogenous in HEK293 cells (from UniProt P18887 1-633)”, the binding entry in experiment [1] is “binds”; in experiment [2], “no binding”; in experiment [3], “binds”; in experiment [4], “no binding”.
Turning to “XRCC1, recombinant (from UniProt P18887 1-633)”, the binding result in experiment [5] is “binds”.
